# Paper PMC12136788
# The other results are listed elsewhere or left out.
# T1: UNK ZnF1-3 (human, UniProt Q9C0B0 31-174)
# T1 sequence: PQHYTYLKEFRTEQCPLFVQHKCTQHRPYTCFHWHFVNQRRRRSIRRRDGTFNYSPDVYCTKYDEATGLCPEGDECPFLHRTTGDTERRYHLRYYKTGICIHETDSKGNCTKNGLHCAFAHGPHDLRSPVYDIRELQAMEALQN
# B1: chr2:216981417:216981418:+_ENSG00000079246_ENST00000392132|hu_hu|hu_hu_hu_mus_True|28_108 (ssRNA)
# RNA: GGGAGUUCUACAGUCCGACGAUCCUGAUACUGAUCCUUGCCAGCAAGGGCAUUAUCAGUGCCAUCUGUGCCAUAGAGGACUAACGCAAUCUCAUCUUUGCUCUCCGCAAACACCUGUCGUUGGACAAACAUAGUCAUCACUUUCAACAGAGGAUUGAGCAUCA
# B2: chr1:163117127:163117128:-_ENSG00000143248_ENST00000313961|hu_mus|hu_hu_hu_mus_False|38_98 (ssRNA)
# RNA: GGGAGUUCUACAGUCCGACGAUCUGCUACAAAGGAUGGAGGAAAUAUCACAGGGCAACUUUUGGAAGCCUGACCAGAUGACUACUUGAUUAGCUCCUGAUAAAACUCAGAGCGCACAAAGCGGGGCAGAGAAUCCUUCUCCAUCAACAGAGGAUUGAGCAUCA
# B3: chr6:74354288:74354289:-_ENSG00000119899_ENST00000355773|hu_hu|motif|central (ssRNA)
# RNA: GGGAGUUCUACAGUCCGACGAUCACUCAGAUUCACACGUAAUGCAUACACAAUGAAGAAACCAAAAAAGGCCAAAAUUGCGGAGUUGUAACGAGCAGAGCAGCACACUGGAGCGGCUUCGGCCCGUGGGGCGCCCGGUAGAAGCAACAGAGGAUUGAGCAUCA
# B4: chr22:19452774:19452775:-_ENSG00000070010_ENST00000399523|hu_hu|hu_hu_hu_mus_False|8_58 (ssRNA)
# RNA: GGGAGUUCUACAGUCCGACGAUCCUUCUCAUUGUAGUUGAUAGCAAUCACAUCUCCAGUCGUCAGACAGGCGAAGUUCCUAAGUGCAUUUUCUAAUACCGCUUUAGGGUUGGUAAUAUCCAGGAAGUCAGGGCUCUGAGGCUGCAACAGAGGAUUGAGCAUCA
# B5: chr1:33857880:33857881:-_ENSMUSG00000042197_ENSMUST00000044455|mus_mus|FALSE|FALSE (ssRNA)
# RNA: GGGAGUUCUACAGUCCGACGAUCUCUUGAAAACACCCAGUCACACUUUAUAUCUCAAGGAUUUCACAACGACGUCUAGACUAAUGGCAUCCCUCUUUAUUUCAAGAGAGAUCAGAUUGUCAGGCAUGUUUGAAAUUCUUGCUCCAACAGAGGAUUGAGCAUCA
# B6: 77602660_77622899_379_3pUTR_ENSMUSG00000032350_ENSMUST00000034905|mouse|control|control (ssRNA)
# RNA: GGGAGUUCUACAGUCCGACGAUCAACAUGUACUCCACCUCGUCACCCCACUUGAGCACGUCCUUGUGCCGGUCCUUGACUGCGUGGUAGAUGUGCAGGAACUGGAGGAUGCCGUGCCUCCGCACGUGGUCGGCGUGGCGCUGGCAACAGAGGAUUGAGCAUCA
# B7: chr7:116176368:116176369:+_ENSMUSG00000031028_ENSMUST00000033341|mus_mus|motif|central (ssRNA)
# RNA: GGGAGUUCUACAGUCCGACGAUCCAGACAGACACACACACACAGACACAGAGCACCUUGGAGCCAGAAGGACAGAAAAAGCGGGACUUGGAGAGGAGCUGGGGAAGCUAACAUCACCACUCUGCAGAAGAACUGGUUUGGAGCCAACAGAGGAUUGAGCAUCA
# B8: chr14:66974463:66974464:+_ENSMUSG00000022044_ENSMUST00000074523|mus_hu|mus_mus_mus_hu_False|38_38 (ssRNA)
# RNA: GGGAGUUCUACAGUCCGACGAUCUUGUAGGACGACUUAUUCAGGGGAUCGGCCAGGAAGCAGGAGCAGAACAAGGACACCAGCGGGAGCUCCUUCAUCUUCUCCUUGUAGGCAGCAAGGGUCAUGUUUCUGGGAUCUGGUGGCCAACAGAGGAUUGAGCAUCA
# B9: chr18:42481571:42481572:+_ENSMUSG00000024491_ENSMUST00000091920|mus_hu|FALSE|FALSE (ssRNA)
# RNA: GGGAGUUCUACAGUCCGACGAUCAAGAUAUUGGAUUAGGGCUGCUUCUGGGUCACCCUUAAAAGCAACCUGGAUAUUAACAAUAGUUCCAAAUUUGCUGAAGUGUUCAUUGAGCUUGGUAAUGUUGUUCAAUUCCUGAGGGAUCAACAGAGGAUUGAGCAUCA
# B10: chr12:77883852:77883853:+_ENSMUSG00000090258_ENSMUST00000041262|mus_hu|FALSE|FALSE (ssRNA)
# RNA: GGGAGUUCUACAGUCCGACGAUCGAUCUGUAGAAGGAUCCUUAGAAUAAGAGAGUCAUUUGUCGGGGGUCAUCAGGGAGAAUACUGAUAGUAUCUUCGGCUUUGCCGCAUAACAGACACAGCAUGGUAUACUCGAUCAUAGGUCAACAGAGGAUUGAGCAUCA
# B11: chr1:163116108:163116109:-_ENSG00000143248_ENST00000313961|hu_hu|FALSE|FALSE (ssRNA)
# RNA: GGGAGUUCUACAGUCCGACGAUCGUACCUUAAAAGUGUCUCACCUAGAAGGCCUCUACCUGUAAUCACAUUAAUUUUUCUAAAGACAAUUUGGUGUUUUGAAGAUAAAUGUCAUUAGUCUAUGAUAAUAGCAUCAUAGGACAACAACAGAGGAUUGAGCAUCA
# B12: chr4:144460044:144460045:+_ENSG00000153147_ENST00000283131|hu_mus|hu_hu_hu_mus_False|8_78 (ssRNA)
# RNA: GGGAGUUCUACAGUCCGACGAUCACGGUCCAUAGCCUGAAGAUCAACUUGCGGAUUCCAAUCAGAAUCAUAUAAAAUGACUACAUCAGCAGUUGCAAGAUUGAUGCCCAGACCACCAGCACGUGUGCUUAACAUGAAUACAAACAACAGAGGAUUGAGCAUCA
# B13: chr12:32445735:32445736:+_ENSMUSG00000035933_ENSMUST00000036862|mus_hu|motif|central (ssRNA)
# RNA: GGGAGUUCUACAGUCCGACGAUCUCGGGCUCUUGCAAUAAAAAGUAGAUCAUUUUCUAUCACUUCUAUUCCAGAAAGAUCGGUUCCUUGAGAAAGAUAAUCAAGUUCAUUGAGACUCUGAGCAGCUUUUGUUAUCUCUCUACUCAACAGAGGAUUGAGCAUCA
# B14: chr18:56819859:56819860:+_ENSG00000166562_ENST00000588875|hu_mus|hu_hu_hu_mus_True|18_18 (ssRNA)
# RNA: GGGAGUUCUACAGUCCGACGAUCAACCUUGAUUACUCUGUGAACUAUCGGAAUGUCUCUUCCUUCAACCUUAAAAACAACUAUUUCACCAGCUCUGAUGGGGUCCUCCCGGAAAUUUGUGAGGAACAGCAGAUCUCCUCUGUGCAACAGAGGAUUGAGCAUCA
# Molecular target: T1, UNK ZnF1-3
# Test: nsRBNS (natural sequence RNA bind-n-seq); RBNS binding buffer (assumed for nsRBNS): 25 mM Tris pH 7.5, 150 mM KCl, 3 mM MgCl2, 0.01% Triton X-100, 500 ug/ml BSA, 20 U/ml SUPERase-In, 4 C; UNK is unkempt and MSI1 is Musashi-1; names of the RNAs are library labels; protein concentration not given here; high values mean tight binding
row,Binder,binding signal
1,B1,0.744 enrichment R
2,B2,1.55 enrichment R
3,B3,1.28 enrichment R
4,B4,0.863 enrichment R
5,B5,0.421 enrichment R
6,B6,0.682 enrichment R
7,B7,2.74 enrichment R
8,B8,2.39 enrichment R
9,B9,0.838 enrichment R
10,B10,0.553 enrichment R
11,B11,1.17 enrichment R
12,B12,1.22 enrichment R
13,B13,0.91 enrichment R
14,B14,0.691 enrichment R
